{
  "source": "the supplement of paper PMC8728848",
  "binders": {"B1": {"name": "BC2L-A (Burkholderia cenocepacia), Q1BKJ8_BURCA (protein)", "chain": "ADSQTSSNRAGEFSIPPNTDFRAIFFANAAEQQHIKLFIGDSQEPAAYHKLTTRDGPREATLNSGNGKIRFEVSVNGKPSATDARLAPINGKKSDGSPFTVNFGIVVSEDGHDSDYNDGIVVLQWPIG"}},
  "experiment_in_all_cases": "glycan array binding signal (z-score within array); higher = stronger binding",
  "details_in_all_cases": "glycan notation: IUPAC condensed, linker removed",
  "key": {"[1]": {"target": "GlcNAc(b1-3)[GlcNAc(b1-6)]Gal(b1-4)GlcNAc", "outline": "(§1)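 The Consortium for Functional Glycomics database supplied 3228 glycan arrays, of which those lacking an available protein sequence were dropped. The binding signal, a within-array Z-score, was averaged across arrays of the same protein sequence and across linkers. Negative scores can be read as non-binding.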"}, "[2]": {"target": "GlcNAc(b1-3)[GlcNAc(b1-6)]GalNAc", "outline": "as §1"}, "[3]": {"target": "GlcNAc(b1-3)[GlcNAc(b1-6)]GlcNAc(b1-4)GlcNAc", "outline": "as §1"}, "[4]": {"target": "GlcNAc(b1-4)Gal(b1-4)GlcNAc", "outline": "as §1"}, "GlcNAc(b1-4)GlcNAc": {"target": "GlcNAc(b1-4)GlcNAc", "outline": "as §1"}, "[5]": {"target": "GlcNAc(b1-4)GlcNAc(b1-4)GlcNAc", "outline": "as §1"}, "[6]": {"target": "GlcNAc(b1-4)GlcNAc(b1-4)GlcNAc(b1-4)GlcNAc(b1-4)GlcNAc", "outline": "as §1"}, "[7]": {"target": "GlcNAc(b1-4)GlcNAc(b1-4)GlcNAc(b1-4)GlcNAc(b1-4)GlcNAc(b1-4)GlcNAc", "outline": "as §1"}, "[8]": {"target": "GlcNAc(b1-4)[GlcNAc(b1-6)]GalNAc", "outline": "as §1"}, "[9]": {"target": "GlcNAc(b1-6)Gal(b1-4)GlcNAc", "outline": "as §1"}, "GlcNAc(b1-6)GalNAc": {"target": "GlcNAc(b1-6)GalNAc", "outline": "as §1"}, "GlcNAc3Prop(b1-4)GlcNAc": {"target": "GlcNAc3Prop(b1-4)GlcNAc", "outline": "as §1"}, "[10]": {"target": "GlcNAc6S(b1-3)Gal(b1-4)GlcNAc", "outline": "as §1"}, "Kdn(a2-3)Gal(b1-3)GalNAc": {"target": "Kdn(a2-3)Gal(b1-3)GalNAc", "outline": "as §1"}, "Kdn(a2-3)Gal(b1-3)GlcNAc": {"target": "Kdn(a2-3)Gal(b1-3)GlcNAc", "outline": "as §1"}, "Kdn(a2-3)Gal(b1-4)Glc": {"target": "Kdn(a2-3)Gal(b1-4)Glc", "outline": "as §1"}, "Kdn(a2-3)Gal(b1-4)GlcNAc": {"target": "Kdn(a2-3)Gal(b1-4)GlcNAc", "outline": "as §1"}, "[11]": {"target": "Kdn(a2-3)Gal(b1-4)[Fuc(a1-3)]GlcNAc", "outline": "as §1"}, "Kdn(a2-6)Gal(b1-4)GlcNAc": {"target": "Kdn(a2-6)Gal(b1-4)GlcNAc", "outline": "as §1"}, "[12]": {"target": "Man(a1-2)Man(a1-2)Man(a1-3)Man", "outline": "as §1"}, "[13]": {"target": "Man(a1-2)Man(a1-2)Man(a1-6)[Man(a1-3)]Man", "outline": "as §1"}, "Man(a1-2)Man(a1-3)Man": {"target": "Man(a1-2)Man(a1-3)Man", "outline": "as §1"}, "[14]": {"target": "Man(a1-2)Man(a1-3)[Man(a1-2)Man(a1-6)]Man", "outline": "as §1"}, "[15]": {"target": "Man(a1-2)Man(a1-3)[Man(a1-2)Man(a1-6)]Man(a1-6)[Man(a1-2)Man(a1-2)Man(a1-3)]Man", "outline": "as §1"}, "[16]": {"target": "Man(a1-2)Man(a1-3)[Man(a1-2)Man(a1-6)]Man(a1-6)[Man(a1-2)Man(a1-2)Man(a1-3)]Man(b1-4)GlcNAc(b1-4)GlcNAc", "outline": "as §1"}, "[17]": {"target": "Man(a1-2)Man(a1-3)[Man(a1-6)]Man(a1-6)[Man(a1-2)Man(a1-3)]Man(b1-4)GlcNAc(b1-4)GlcNAc", "outline": "as §1"}, "[18]": {"target": "Man(a1-2)Man(a1-6)[Man(a1-3)]Man(a1-6)[Man(a1-2)Man(a1-2)Man(a1-3)]Man", "outline": "as §1"}, "[19]": {"target": "Man(a1-2)Man(a1-6)[Man(a1-3)]Man(a1-6)[Man(a1-2)Man(a1-2)Man(a1-3)]Man(b1-4)GlcNAc(b1-4)GlcNAc", "outline": "as §1"}, "Man(a1-3)[Man(a1-6)]Man": {"target": "Man(a1-3)[Man(a1-6)]Man", "outline": "as §1"}, "[20]": {"target": "Man(a1-3)[Man(a1-6)]Man(a1-6)[Man(a1-2)Man(a1-3)]Man(b1-4)GlcNAc(b1-4)GlcNAc", "outline": "as §1"}, "[21]": {"target": "Man(a1-3)[Man(a1-6)]Man(a1-6)[Man(a1-3)]Man", "outline": "as §1"}, "[22]": {"target": "Man(a1-3)[Man(a1-6)]Man(a1-6)[Man(a1-3)]Man(b1-4)GlcNAc(b1-4)GlcNAc", "outline": "as §1"}, "[23]": {"target": "Man(a1-3)[Man(a1-6)]Man(b1-4)GlcNAc(b1-4)GlcNAc", "outline": "as §1"}, "Man(a1-6)Man": {"target": "Man(a1-6)Man", "outline": "as §1"}, "Man(b1-4)GlcNAc": {"target": "Man(b1-4)GlcNAc", "outline": "as §1"}, "Neu5Ac(a2-3)Gal": {"target": "Neu5Ac(a2-3)Gal", "outline": "as §1"}, "[24]": {"target": "Neu5Ac(a2-3)Gal(b1-3)GalNAc", "outline": "as §1"}, "[25]": {"target": "Neu5Ac(a2-3)Gal(b1-3)GalNAc(b1-3)Gal(a1-4)Gal(b1-4)Glc", "outline": "as §1"}, "[26]": {"target": "Neu5Ac(a2-3)Gal(b1-3)GalNAc(b1-3)Gal(b1-4)GlcNAc", "outline": "as §1"}, "[27]": {"target": "Neu5Ac(a2-3)Gal(b1-3)GalNAc(b1-4)[Neu5Ac(a2-3)]Gal(b1-4)Glc", "outline": "as §1"}, "[28]": {"target": "Neu5Ac(a2-3)Gal(b1-3)GalNAc(b1-4)[Neu5Ac(a2-8)Neu5Ac(a2-3)]Gal(b1-4)Glc", "outline": "as §1"}, "[29]": {"target": "Neu5Ac(a2-3)Gal(b1-3)GalNAc6S", "outline": "as §1"}, "[30]": {"target": "Neu5Ac(a2-3)Gal(b1-3)GlcNAc", "outline": "as §1"}},
  "note": "The other results are listed elsewhere or left out.",
  "data": [
    {"binder": "B1", "values": [
      {"measurement": "glycan array binding signal (z-score)", "setting": "[1]", "result": -0.186},
      {"measurement": "glycan array binding signal (z-score)", "setting": "[2]", "result": -0.128},
      {"measurement": "glycan array binding signal (z-score)", "setting": "[3]", "result": -0.249},
      {"measurement": "glycan array binding signal (z-score)", "setting": "[4]", "result": 0.123},
      {"measurement": "glycan array binding signal (z-score)", "setting": "GlcNAc(b1-4)GlcNAc", "result": -0.299},
      {"measurement": "glycan array binding signal (z-score)", "setting": "[5]", "result": -0.293},
      {"measurement": "glycan array binding signal (z-score)", "setting": "[6]", "result": -0.271},
      {"measurement": "glycan array binding signal (z-score)", "setting": "[7]", "result": 0.107},
      {"measurement": "glycan array binding signal (z-score)", "setting": "[8]", "result": -0.26},
      {"measurement": "glycan array binding signal (z-score)", "setting": "[9]", "result": -0.188},
      {"measurement": "glycan array binding signal (z-score)", "setting": "GlcNAc(b1-6)GalNAc", "result": -0.073},
      {"measurement": "glycan array binding signal (z-score)", "setting": "GlcNAc3Prop(b1-4)GlcNAc", "result": -0.284},
      {"measurement": "glycan array binding signal (z-score)", "setting": "[10]", "result": -0.295},
      {"measurement": "glycan array binding signal (z-score)", "setting": "Kdn(a2-3)Gal(b1-3)GalNAc", "result": -0.275},
      {"measurement": "glycan array binding signal (z-score)", "setting": "Kdn(a2-3)Gal(b1-3)GlcNAc", "result": -0.292},
      {"measurement": "glycan array binding signal (z-score)", "setting": "Kdn(a2-3)Gal(b1-4)Glc", "result": -0.297},
      {"measurement": "glycan array binding signal (z-score)", "setting": "Kdn(a2-3)Gal(b1-4)GlcNAc", "result": -0.291},
      {"measurement": "glycan array binding signal (z-score)", "setting": "[11]", "result": -0.284},
      {"measurement": "glycan array binding signal (z-score)", "setting": "Kdn(a2-6)Gal(b1-4)GlcNAc", "result": -0.298},
      {"measurement": "glycan array binding signal (z-score)", "setting": "[12]", "result": 2.48},
      {"measurement": "glycan array binding signal (z-score)", "setting": "[13]", "result": 4.07},
      {"measurement": "glycan array binding signal (z-score)", "setting": "Man(a1-2)Man(a1-3)Man", "result": 1.98},
      {"measurement": "glycan array binding signal (z-score)", "setting": "[14]", "result": 2.25},
      {"measurement": "glycan array binding signal (z-score)", "setting": "[15]", "result": 4.82},
      {"measurement": "glycan array binding signal (z-score)", "setting": "[16]", "result": 3.02},
      {"measurement": "glycan array binding signal (z-score)", "setting": "[17]", "result": 3.85},
      {"measurement": "glycan array binding signal (z-score)", "setting": "[18]", "result": 4.09},
      {"measurement": "glycan array binding signal (z-score)", "setting": "[19]", "result": 5.06},
      {"measurement": "glycan array binding signal (z-score)", "setting": "Man(a1-3)[Man(a1-6)]Man", "result": 5.28},
      {"measurement": "glycan array binding signal (z-score)", "setting": "[20]", "result": 5.49},
      {"measurement": "glycan array binding signal (z-score)", "setting": "[21]", "result": 3.88},
      {"measurement": "glycan array binding signal (z-score)", "setting": "[22]", "result": 4.38},
      {"measurement": "glycan array binding signal (z-score)", "setting": "[23]", "result": 4.23},
      {"measurement": "glycan array binding signal (z-score)", "setting": "Man(a1-6)Man", "result": 0.444},
      {"measurement": "glycan array binding signal (z-score)", "setting": "Man(b1-4)GlcNAc", "result": -0.291},
      {"measurement": "glycan array binding signal (z-score)", "setting": "Neu5Ac(a2-3)Gal", "result": -0.292},
      {"measurement": "glycan array binding signal (z-score)", "setting": "[24]", "result": -0.289},
      {"measurement": "glycan array binding signal (z-score)", "setting": "[25]", "result": -0.283},
      {"measurement": "glycan array binding signal (z-score)", "setting": "[26]", "result": -0.327},
      {"measurement": "glycan array binding signal (z-score)", "setting": "[27]", "result": -0.291},
      {"measurement": "glycan array binding signal (z-score)", "setting": "[28]", "result": -0.183},
      {"measurement": "glycan array binding signal (z-score)", "setting": "[29]", "result": -0.291},
      {"measurement": "glycan array binding signal (z-score)", "setting": "[30]", "result": -0.292}
    ]}
  ]
}
